The whole screen tested about 48,000 compounds, of which about 450 (0.94%) were called active. Not shown: some 19% with an inconclusive outcome. The call rests on the fitted dose curve; in most records, active means well fitted inhibition curve with a large enough effect; inconclusive means small, poorly fitted or top-dose-only effect; inactive means no such curve, though single readings can be large or run the other way. The list shows a part of the results.
Assay: Primary qHTS for Identification of Small Molecule Inhibitors of Huntingtin Promoter Activity; further: nearly all actives have a fitted effect of over 50% in size
Details: HEK293 HTT promoter firefly luciferase reporter (activity 0% = vehicle and -100% = no light), 24 h; series mostly up to 57.5 µM; activity change, negative = inhibition: at the top concentration
Summary of the method: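 Firefly luciferase readout (Dual-Glo, 10 min RT) after 24 h, 37 °C compound exposure (final up to 57.5 uM) of HEK293 reporter cells cultured 24 h beforehand; PTC124 at 50 uM final as control inhibitor; activity scaled vehicle 0%, zero RLU -100%.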

Activity change, negative = inhibition, inactive:
COc1cccc(CNC(=O)CCNS(=O)(=O)c2ccc3c(c2)CCCC(=O)N3)c1 -11.9%, CC1=C(C(=O)Nc2ccccc2)C(c2cccs2)n2nc(SCc3ccccc3)nc2N1 (stereo unspecified) -4.45%, O=C(CSc1ccc2nnc(CCNS(=O)(=O)c3ccccc3)n2n1)Nc1ccccc1C(F)(F)F -14.3%, CCc1cccc(NC(=O)CN2c3ccccc3S(=O)(=O)c3ccccc32)c1 -23.8%, Cc1ccc(CNC(=O)Cn2ccn(-c3cc(C)cc(C)c3)c(=O)c2=O)cc1 -20.9%, COc1ccccc1NC(=O)Cn1nc(C)n2cccc2c1=O 2.33%, O=C(c1ccc(F)cc1)n1nc(-c2ccc(Cl)cc2)nc1NCc1ccco1 23.6%, CCOc1ccc(-c2cc(NC(=O)Nc3ccccc3C(F)(F)F)c(C(=O)OC)s2)cc1 49.4%, Cc1ccc(N2CC(C(=O)NCc3nnnn3-c3ccc(C)c(C)c3)CC2=O)cc1 (stereo unspecified) 7.15%, CCCCN(CC)Cc1ccc(CNS(=O)(=O)c2cc3c(cc2Cl)NC(=O)CO3)o1 -6.23%, O=c1cc(N2CCOCC2)oc2c(-c3ccccc3)cccc12 13%, CCOc1ccc(NC(=O)Cn2c(=O)n(Cc3ccc(C(=O)NCc4ccc5c(c4)OCO5)cc3)c(=O)c3ccccc32)cc1 -12%, CCOc1ccc(NC(=O)Cn2c(=O)cc(C)c3c(C)nn(-c4ccc(CC)cc4)c32)cc1 5.63%, COc1ccc(C(=O)Nc2ccccc2C(=O)OCc2cc(=O)n3nc(C4CC4)sc3n2)cc1 -1.56%, CCOC(=O)N1CCc2c(sc3c2c(=O)n(-c2ccc(CC)cc2)c(=O)n3Cc2cc(C)ccc2C)C1 -6.89%, CCOC(=O)c1c(C)oc2nc(C)nc(Nc3cc(C)ccc3OC)c12 15.4%, CCOc1ccccc1NC(=O)C1CCCN(S(=O)(=O)c2cn(C)cn2)C1 (stereo unspecified) -17.6%, CC(C)c1ccc(/C=C(\C#N)c2nc(-c3ccc(O)cc3)cs2)cc1 -21.8%, Cn1ccc2cc(S(=O)(=O)N3CCN(C(=O)Nc4ccccc4F)CC3)ccc21 -9.23%, Nc1nc(N)c(S(=O)(=O)c2ccccc2)c(Nc2ccc(F)cc2)n1 -24.1%, O=C(CSc1nc2ccccc2nc1Cc1ccccc1)N1CCCc2ccccc21 -23.8%, CCOC(N)=O 17%, CCOC(=O)c1cccc(NC(=O)c2sc3nc[nH]c(=O)c3c2C)c1 59.4%, CCc1ccc2occ(CC(=O)N(Cc3ccc(N(C)C)cc3)C3CCS(=O)(=O)C3)c2c1 (stereo unspecified) -17.6%, Cc1cccc(N(C)S(=O)(=O)c2nnc(NC(=O)C3CCCCC3)s2)c1 -19.1%, Cc1cccc(C(=O)Nc2ccc(N3CCC(CCN4CCOCC4)CC3)c(C(=O)O)c2)c1 -4%, O=C(Nc1ccc(S(=O)(=O)N2CCC(c3nc4ccccc4s3)CC2)cc1)c1ccccc1F -8.49%, CCN(C(=O)NCc1noc2ccccc12)c1cc(C)ccc1C -25.3%, CCOc1ccc(CNC(=O)CCn2cccn2)cc1OC -0.333%, CCCCC12CN3CC(C)(CN(C1)C3c1c(C)[nH]c(=O)[nH]c1=O)C2=O (stereo unspecified) -12.6%, CCN(CCCNC(=O)c1nn(-c2ccc(OC)cc2)c(=O)c2c1c1ccccc1n2C)c1cccc(C)c1 -9.83%, CCOc1ccc(NC(=O)CN2C(=O)C(c3ccccc3)=NC23CCCCCC3)cc1 -26.1%, Cc1nc2nc(SCC(=O)NC(C)c3ccccc3)nn2c(C)c1Cc1c(F)cccc1Cl (stereo unspecified) -27.2%, Cc1ccc(Nc2nccc(N(C)c3ccc4c(C)n(C)nc4c3)n2)cc1S(N)(=O)=O, CCOc1ccc(CN2C(=O)c3ccccc3Sc3ccc(C(=O)NCc4ccc(C)cc4)cc32)cc1 -23.8%, COc1cccc(CSc2nc3n(n2)C(c2ccccc2C)C(C(=O)Nc2ccccc2OC)=C(C)N3)c1 (stereo unspecified) 0%, O=C(CSc1oc(-c2ccco2)nc1S(=O)(=O)c1ccc(Cl)cc1)c1ccccc1 -13.7%, COCCCn1c(=N)c(C(=O)NC2CCCC2)cc2c(=O)n3ccccc3nc21 -3.51%, Cc1ccc(CCNC(=O)CCSCc2ccc(Cl)cc2)cc1 -18.5%, Cc1ccc(-c2nc3c4cnn(-c5cc(Cl)ccc5Cl)c4ncn3n2)cc1 2.28%, CCN(CC)CCNC(=O)c1cc(Br)c(N)cc1OC -11.4%, Cc1ccc(S(=O)(=O)c2nnn3c2nc(Nc2ccc(C(C)C)cc2)c2sccc23)cc1C -14.2%, CCOc1ccc(-n2c(SCc3nc(-c4ccccc4C)no3)nnc2-c2ccccc2)cc1 1.82%, CC(C)Cc1nn2c(=O)cc(COC(=O)c3ccccc3NC(=O)c3ccccc3)nc2s1 -18.1%, CC(=O)Nc1ccc(NC(=O)CN2C(=O)CN(C)C(=O)c3ccccc32)cc1 7.38%, CCCn1c(=O)c2sccc2n2c(CCCC(=O)NCCOC)nnc12 -11.2%, CN(C)c1ccc(CNc2nc(-c3ccco3)nn2C(=O)c2cccc([N+](=O)[O-])c2)cc1 53.7%, CN(C)c1ccc(CN(CC2CCCO2)C(=O)COc2ccc(Cl)cc2)cc1 (stereo unspecified) -29.4%, CCc1ccc(-n2c(C)nc3cc(C(=O)NCCc4ccccc4)ccc32)cc1 -21.1%, CC(C)CC(=O)Nc1ccc(C(=O)OCc2cc(=O)n3nc(C4CCCCC4)sc3n2)cc1 -9.79%, Cc1nc(N2CCCC2)ncc1C(=O)Nc1ccccc1 0.537%, COc1cccc(CN2C(=O)c3ccccc3C2C(=O)NCCc2ccc(OC)c(OC)c2)c1 (stereo unspecified) -6.81%, Cc1cc(O)c(C(c2cccc(Cl)c2)N2CCN(c3ccccc3)CC2)c(=O)n1Cc1ccco1 (stereo unspecified) -0.764%, CCC1CN(C(=O)NCc2ccc(F)cc2)c2ccccc2O1 (stereo unspecified) 0.996%, Cc1ccc(NC(=O)c2ccco2)c(OCc2cc(=O)n3cc(C)sc3n2)c1 -5.63%, COc1ccc(-n2c(=O)c3c4c(sc3n(Cc3cc(=O)n5c(C)cccc5n3)c2=O)CCC4)c(OC)c1 -4.62%, CC(C)(Cc1c[nH]c2ccccc12)NCC(O)COc1ccccc1C#N (stereo unspecified) -6.35%, Cc1ccc(Cn2c(=O)c3ccccc3n3c(-c4ccccc4)nnc23)cc1 -12.4%, CCc1ccc(CNC(=O)CSCc2cnn(-c3ccccc3)c2-n2cccc2)cc1 -14%, Cc1ccc(OCC(=O)Nc2ccc3nc(SCC(=O)N4CCCC4)sc3c2)cc1C -2.67%, COc1ccc(NC(=O)CCCS(=O)(=O)c2nc(-c3ccc(OC)c(OC)c3)cc(C(F)(F)F)n2)cc1OC -9.35%, Cc1ccc(SCC(=O)Nc2ccc3oc(-c4cccc(C)c4)nc3c2)cc1 -10.1%, Cc1ccc(Cl)cc1NC(=O)CCS(=O)(=O)c1ccc(Br)s1 -3.7%, CCN1C(=O)CC(C(=O)Nc2ccc(OC)cc2)SC1=Nc1ccc(C)c(C)c1 (stereo unspecified) -12.7%, CCOC(=O)c1noc2ncn(CC(=O)O)c(=O)c12 63.8%, O=C(NCCC1=CCCCC1)c1ccc2c(c1)N(Cc1ccccc1)C(=O)c1ccccc1S2(=O)=O -6.95%, O=C(Cn1cc(SCc2ccccc2Cl)c2ccccc21)N1CCCCCC1 -17.4%, Cc1ccc(CNC(=O)CN(c2cc(C)cc(C)c2)S(=O)(=O)c2c(C)[nH]c(=O)[nH]c2=O)cc1 -15%, Cc1ccc(N2CCN(C(=O)c3nn(C)c4c3CSc3ccccc3-4)CC2C)cc1 (stereo unspecified) -17%, CCOc1ccc(-c2ccc(CO)o2)cc1N 14.9%, CCc1ccc(C2c3c(n[nH]c3C)C(=O)N2c2ccc(C)cc2)cc1 (stereo unspecified) 34.5%, CCc1cccc(NC(=O)CCS(=O)(=O)c2ccc(C)cc2)c1 -4.98%, O=C(NC1CCCC1)c1ccc2c(c1)N(Cc1ccc(F)cc1)C(=O)c1ccccc1S2 -11.8%, COc1ccc(NC(=O)C(Cc2ccccc2)n2cccc2)c(OC)c1 (stereo unspecified) -24.8%, COc1ccc(-c2noc(-c3ccccc3NC(=O)c3cc(OC)c(OC)c(OC)c3)n2)cc1 -6.3%, O=S(=O)(Nc1nc2n(n1)C(c1ccccc1)C=C(c1ccc(Cl)cc1)N2)c1ccccc1 (stereo unspecified) -7.06%, O=C(NCc1ccc(Cl)cc1)C1CCCN(c2ncnc3onc(-c4ccc(F)cc4)c23)C1 (stereo unspecified) -11.8%, COc1ccc(Nc2nnc(-c3ccc(C)c(S(=O)(=O)N4CCOCC4)c3)c3ccccc23)cc1 -5.99%, OC(CCN1CCCCC1)(c1ccccc1)c1ccccc1 -7.09%, CCOc1cc(C2c3c(oc4ccc(F)cc4c3=O)C(=O)N2Cc2ccc(C)cc2)ccc1O (stereo unspecified) 6.75%, CCCCNC(=O)CSc1nc2n[nH]c(C)c2c(=N)n1-c1ccccc1CC -23.3%, O=C(COc1ccccc1F)Nc1nnc(S(=O)(=O)N2CCCCCC2)s1 -19.4%, Cc1ccccc1Cc1c(C)nc2nc(SCC(=O)NC(C)c3ccccc3)nn2c1C (stereo unspecified) -29.3%, CCC1CN(C(=O)Nc2cccc3c2CCCC3)c2cc(C)ccc2O1 (stereo unspecified) -25.4%, CCCCNC(=O)C1CCN(Cc2nc(-c3ccc(OC)c(OC)c3)oc2C)CC1 7%, COc1ccc(CCNC(=O)CSc2nnc(-c3ccc(C)cc3)c(-c3ccc(C)cc3)n2)cc1OC 3.67%, Cc1ccc(-c2noc(-c3ccc(NCC4CCCO4)c([N+](=O)[O-])c3)n2)cc1 (stereo unspecified) 3.35%, COc1cccc(C2=NN(S(C)(=O)=O)C(c3cn(-c4ccccc4)nc3-c3cccs3)C2)c1 (stereo unspecified) 1.61%, COc1ccc(CNC(=O)CN(C)c2nn3c(=O)cc(C)nc3s2)cc1 -11.3%, COc1ccccc1NC(=O)N1CC=C(c2c[nH]c3ccccc23)CC1 -17%, CCOc1ccc(C(=O)NCCS(=O)(=O)N2CCN(c3cccc(Cl)c3)CC2)cc1 -21.9%, Cc1ccc(-c2nnc(Nc3ccc(Cl)cc3)c3ccccc23)cc1S(=O)(=O)NCC1CCCO1 (stereo unspecified) -27.5%, COc1ccc(C(=O)c2cn(Cc3ccccc3F)c3ccc(F)cc3c2=O)cc1 -33.3%, COc1ccc(-c2[nH]c(-c3ccc(OC)c(OC)c3)nc2SCC(=O)Nc2ccccc2)cc1 -20.4%, Cc1cccc(NC(=O)c2oc3ccc(S(=O)(=O)N4CCCCC4)cc3c2C)c1C -21.1%, Cn1ccc2cc(S(=O)(=O)N3CCCN(C(=O)Nc4ccc(Br)cc4)CC3)ccc21 -31.4%

From PubChem BioAssay AID1508623 (National Center for Advancing Translational Sciences (NCATS), 2021)
